B1: EcSSB R116D–W136D (natural protein)
chain: not shown
notes: E. coli SSB (EcSSB) with two aspartates introduced in the IDL; not shown: His6, N-terminal, cleaved
B2: EcSSB W136D (natural protein)
chain: not shown
notes: E. coli SSB (EcSSB) with an aspartate introduced in the IDL; not shown: His6, N-terminal, cleaved
B3: EcSSB dC (construct lacking the CTP, […]) (domain or fragment)
chain: not shown
notes: E. coli SSB (EcSSB) lacking the C-terminal peptide, […]

Columns and labels:
Conditions in all cases: both partners purified
RecQ helicase = target: T1, RecQ helicase (UniProt P15043 1-609); assay: fluorescence polarisation; competitive: RecQ–flCTP mixture (0.65 uM RecQ, 25 nM flCTP) titrated with EcSSB constructs (tetramer concentrations); 25°C; 20 mM Tris–acetate pH 8, 50 mM K-glutamate, 10 mM Mg-acetate; competitive binding scheme
T1 construct: RecQ helicase, a key partner of EcSSB; the discussion gives 82 kDa for RecQ helicase

EcSSB R116D–W136D = target: B1; assay: fluorescence polarisation; competitive: dC (2.5 uM tetramer) complexed with 25 nM flCTP, titrated with EcSSB constructs (tetramer concentrations); 25°C; 20 mM Tris–acetate pH 8, 50 mM K-glutamate, 10 mM Mg-acetate; competitive binding scheme
[1] = target: T2, wild-type Escherichia coli single-stranded DNA binding protein (EcSSB) (Escherichia coli, UniProt P0AGE0); assay: as above
T2 construct: Homotetramer; also called WT; WT EcSSB; not shown: His6, N-terminal, cleaved

[2] = target: T3, EcSSB d1G (aa 114-120 deleted) (Escherichia coli, UniProt P0AGE0, aa 114–120 deleted); assay: as above
T3 construct: E. coli SSB (EcSSB) lacking the first glycine-rich motif GGRQGGG of the IDL; not shown: His6, N-terminal, cleaved

RecQ helicase, sequence (P15043 whole entry): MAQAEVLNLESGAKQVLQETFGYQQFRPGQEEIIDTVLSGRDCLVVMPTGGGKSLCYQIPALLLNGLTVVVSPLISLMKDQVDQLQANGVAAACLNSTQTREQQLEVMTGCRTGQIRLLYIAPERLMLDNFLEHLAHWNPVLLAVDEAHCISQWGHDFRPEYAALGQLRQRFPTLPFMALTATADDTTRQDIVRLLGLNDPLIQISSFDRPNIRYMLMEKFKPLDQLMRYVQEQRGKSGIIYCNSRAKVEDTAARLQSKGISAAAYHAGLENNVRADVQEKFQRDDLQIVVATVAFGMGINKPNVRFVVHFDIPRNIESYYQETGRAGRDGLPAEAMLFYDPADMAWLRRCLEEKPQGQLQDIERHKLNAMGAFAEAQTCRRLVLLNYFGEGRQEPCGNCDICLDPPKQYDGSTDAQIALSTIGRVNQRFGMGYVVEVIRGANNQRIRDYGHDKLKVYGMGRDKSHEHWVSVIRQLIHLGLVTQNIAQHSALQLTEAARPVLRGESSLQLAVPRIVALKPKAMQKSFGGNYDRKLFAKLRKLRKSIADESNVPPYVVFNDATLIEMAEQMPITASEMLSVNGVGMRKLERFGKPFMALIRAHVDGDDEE

| Binder | Kd (RecQ helicase) [nM] | Kd (EcSSB R116D–W136D) [nM] | Kd [1] [nM] | Kd [2] [nM] |
| --- | --- | --- | --- | --- |
| B1 | 17 |  |  |  |
| B2 | 29 |  |  |  |
| B3 |  | 2500 | 2500 | 220 |

Reference: paper PMC12143593, “Selective engineering of condensation properties of single-stranded DNA binding (SSB) protein via its intrinsically disordered linker region” (Nucleic Acids Research, 2025)
